In all, about 220,000 compounds went through this assay and about 16,000 (7.3%) were called active. The shares of active, inactive and inconclusive entries below differ from those in the screen. Calls follow the shape of the dose curve; as a rule, active = well fitted inhibition curve with a large enough effect (not every such curve was filed as active); inconclusive = small, poorly fitted or top-dose-only effect, or another doubt; inactive = no such curve, though single readings can be large or run the other way. No potency is given beside an inconclusive call; the fits are too rough.
target: Aldehyde dehydrogenase 1A1 (Homo sapiens) (UniProt P00352); assay: qHTS Assay for Inhibitors of Aldehyde Dehydrogenase 1 (ALDH1A1); details: Purified ALDH1A1, NADH fluorescence, propionaldehyde substrate; series mostly up to 75.3 µM; activity, negative = inhibition: at the top concentration;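 as to activity, negative = inhibition: plate controls were no enzyme wells and a reference inhibitor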
Potency is read from the fitted curve at half-maximal effect; tags tell the direction and shape of the fitted curve.

Sequence of UniProt P00352 (P00352 whole entry, looked up): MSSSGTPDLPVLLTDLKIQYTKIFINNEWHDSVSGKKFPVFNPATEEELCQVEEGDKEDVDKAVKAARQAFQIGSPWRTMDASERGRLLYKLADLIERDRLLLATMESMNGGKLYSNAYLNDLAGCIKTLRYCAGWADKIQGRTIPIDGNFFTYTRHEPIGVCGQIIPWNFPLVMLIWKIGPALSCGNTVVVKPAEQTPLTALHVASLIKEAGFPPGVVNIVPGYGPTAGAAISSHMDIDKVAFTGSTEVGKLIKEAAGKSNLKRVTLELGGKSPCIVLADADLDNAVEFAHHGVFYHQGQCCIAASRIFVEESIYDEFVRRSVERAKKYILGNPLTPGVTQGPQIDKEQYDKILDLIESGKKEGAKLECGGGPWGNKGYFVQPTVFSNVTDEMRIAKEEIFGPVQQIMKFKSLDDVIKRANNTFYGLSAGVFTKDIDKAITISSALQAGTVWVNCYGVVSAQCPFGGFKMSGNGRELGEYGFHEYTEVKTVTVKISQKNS

Q: Which Potency does the source give for `CCOC(=O)N1CCN(c2ncnc3c2oc2nc(C(C)C)c4c(c23)CCC4)CC1` here?
A: active: 1 µM

Q: How did the Potency turn out when `O=c1c2ccccc2c(/C=N/n2cnnc2)c(O)n1-c1ccccc1F` was run?
A: inconclusive [inhibitor, partial curve]

Q: With `COc1ccccc1-c1c(C(F)(F)F)oc2cc(OS(C)(=O)=O)ccc2c1=O` as the compound, how does the Potency read?
A: inconclusive [inhibitor, single point]

Q: For `CCCn1c(NC(=S)Nc2ccccc2)nc2ccccc21`, which Potency is on record?
A: inconclusive [inhibitor, single point]

Q: With `COc1ccc(S(=O)(=O)NCCSc2ccccc2)cc1OC` as the compound, how does the Potency read?
A: inconclusive [inhibitor, partial curve]

Q: `O=[N+]([O-])c1c(NCCCO)cc(N2CCN(Cc3ccc4c(c3)OCO4)CC2)c2nonc12` was tested. Which “activity, negative = inhibition” value did it give?
A: inactive: 1.71%

Q: With `COc1cccc(C(=O)NC2CC3CCCC(C2)N3CC(=O)Nc2ccc(N(C)C)cc2)c1` (configuration not stated) as the compound, how does the Potency read?
A: inconclusive [inhibitor, single point]

Q: How did the Potency turn out when `CN(C)c1ccc(CNCCC2CCOC(C)(C)C2)cc1` (configuration not stated) was run?
A: inconclusive [inhibitor, single point]

Q: `COc1cc(OC)cc(-c2n[nH]c(=S)n2-c2ccc3c(c2)OCCO3)c1` was tested. Which “activity, negative = inhibition” value did it give?
A: inactive: -6.42%

Q: With `CCCCCOC(=O)c1c(N)n(CCOC)c2nc3ccccc3nc12` as the compound, how does the Potency read?
A: inconclusive [inhibitor, partial curve]

Q: Which Potency does the source give for `Cc1nc2cnc(N3CCNCC3)nc2n(-c2ccccc2)c1=O` here?
A: inconclusive [inhibitor, partial curve]

Q: Which Potency does the source give for `COc1cc2cc(CN(Cc3cccnc3)C(=O)Nc3ccccc3F)c(=O)[nH]c2cc1OC` here?
A: inconclusive [inhibitor, partial curve]

Q: Which Potency does the source give for `CCN1CCN(C(=O)c2ccc(Cn3c(=O)[nH]c4cc(OC)c(OC)cc4c3=O)cc2)CC1` here?
A: inconclusive [inhibitor, single point]

Q: For `S=c1[nH]nc(-c2cc(-c3ccsc3)n[nH]2)n1-c1cccc2ccccc12`, which Potency is on record?
A: inconclusive [inhibitor, single point]

Q: With `COc1cccc2sc(Nc3nc4ccc(NC(C)=O)cc4s3)nc12` as the compound, how does the Potency read?
A: inconclusive [inhibitor, partial curve]

Q: With `Cc1ccc(C(=O)NCc2ccccc2)cc1Br` as the compound, how does the Potency read?
A: inconclusive [inhibitor, single point]

Q: With `Cc1ccccc1C(=O)NNC(=O)/C=C/c1ccccc1` as the compound, how does the “activity, negative = inhibition” value read?
A: inactive: 11%

Q: How did the Potency turn out when `COc1ccc(CNc2nc(NCc3ccc(OC)cc3)n(S(C)(=O)=O)n2)cc1` was run?
A: inconclusive [inhibitor, single point]

Q: Which “activity, negative = inhibition” value does the source give for `O=c1[nH][nH]c(=O)c2cc(N3CCCC3)ccc12` here?
A: inactive: -1.14%

Q: Which Potency does the source give for `O=c1cc(CN2CCN(Cc3ccccc3)CC2)c2cc(Cl)ccc2o1` here?
A: inconclusive [inhibitor, single point]

Q: Which Potency does the source give for `COc1ccccc1NC(=O)CN1CCN(S(=O)(=O)c2ccc(Br)cc2)CC1` here?
A: inconclusive [inhibitor, full curve, poor fit]

Q: Which “activity, negative = inhibition” value does the source give for `CCC(=O)Nc1cccc(NC(C)=O)c1` here?
A: inactive: 7.7%

Q: Which “activity, negative = inhibition” value does the source give for `Clc1cccc(OCCN2CCOCC2)c1` here?
A: inactive: -11.2%

Q: How did the “activity, negative = inhibition” value turn out when `O=C(CCCn1c(=O)c2sccc2n(CC(=O)NCc2ccco2)c1=O)NCc1ccco1` was run?
A: inactive: -5.12%

Q: For `CC/C(=N\NC(=S)Nc1cc(C)ccc1C)c1ccc(OC(F)F)cc1`, which Potency is on record?
A: inconclusive [inhibitor, single point]

Q: How did the Potency turn out when `O=C(NC(=S)Nc1c(Cl)ccc2nsnc12)c1ccco1` was run?
A: inconclusive [inhibitor, single point]

Q: `CCOC(=O)c1c(NC(=O)CSc2cn(CC)c3ccccc23)sc2c1CCC2` was tested. Which Potency did it give?
A: inconclusive [inhibitor, single point]

Q: With `CC(=O)c1ccc(-n2nnnc2SCC(=O)N2CCc3ccccc3C2)cc1` as the compound, how does the Potency read?
A: inconclusive [inhibitor, single point]

Q: `Cc1ccc(NC(=O)COc2ccc(Br)cn2)cc1` was tested. Which “activity, negative = inhibition” value did it give?
A: inactive: -7.7%

Q: For `COC(=O)/C=C1/S/C(=N/NC(=O)c2ccccc2C)NC1=O`, which Potency is on record?
A: inconclusive [inhibitor, partial curve, poor fit]

Q: With `COc1ccc2nc(SCC(=O)c3ccco3)[nH]c2c1` as the compound, how does the Potency read?
A: inconclusive [inhibitor, single point]

Q: How did the Potency turn out when `C=CCn1cnc2sc(C(=O)Nc3ccccc3OC)c(C)c2c1=O` was run?
A: inconclusive [inhibitor, single point]

Q: How did the Potency turn out when `N#Cc1cccc(NCC(=O)Nc2ccc3c(c2)OCCO3)c1` was run?
A: inconclusive [inhibitor, single point]

Q: How did the Potency turn out when `NNC(=O)COc1ccccc1[N+](=O)[O-]` was run?
A: inconclusive [inhibitor, single point]

Q: `N#CC1=C(N)N(c2ccccc2Sc2ccccc2)C(=O)C1` was tested. Which Potency did it give?
A: inconclusive [inhibitor, single point]

Q: Which “activity, negative = inhibition” value does the source give for `CC(=O)c1ccc(N2CCN(C(=S)Nc3ccc(Cl)c(Cl)c3)CC2)cc1` here?
A: inactive: -2.45%

Q: For `O=C1c2nccnc2C(=O)N1c1ccc(C(F)(F)F)cc1`, which “activity, negative = inhibition” value is on record?
A: inactive: -9.32%

Q: With `Cc1cc(C)nc(/N=c2/ssnc2Cl)c1` as the compound, how does the Potency read?
A: active: 3.98 µM

Q: Which Potency does the source give for `CC(C)NC(=S)N1CCN(C(c2ccccc2)c2ccccc2)CC1` here?
A: active: 10 µM

Q: For `Cc1ccc(C(=O)Nc2cccc(-c3cnc4ccccc4n3)c2)cc1`, which “activity, negative = inhibition” value is on record?
A: inactive: 11.5%

Q: For `Cc1ccc2nc(-c3ccc(NC(=O)CCS(=O)(=O)c4ccccc4)cc3)sc2c1`, which Potency is on record?
A: inconclusive [inhibitor, partial curve]

Q: `CC1CCN(c2nc3c(cc2C#N)COC(C)(C)C3)CC1` was tested. Which Potency did it give?
A: inconclusive [inhibitor, single point]

Q: For `COc1ccc(OCCNS(=O)(=O)c2ccc3oc4ccccc4c3c2)cc1`, which “activity, negative = inhibition” value is on record?
A: inactive: 4.31%

Q: Which Potency does the source give for `CCn1cc(-c2cc(C(=O)O)c3ccccc3n2)c(C)n1` here?
A: inconclusive [inhibitor, partial curve]

Q: How did the Potency turn out when `Cc1ccccc1NC(=O)c1c(C)nc(SCC(=O)OCc2ccccc2)c(C#N)c1-c1ccc(F)cc1` was run?
A: inconclusive [inhibitor, single point]

Q: How did the Potency turn out when `O=C(O)CCS(=O)(=O)c1nc(-c2cccs2)cc(C(F)(F)F)n1` was run?
A: inconclusive [inhibitor, single point]

Q: Which Potency does the source give for `COc1ccc(CCN(Cc2cc3cc(C)ccc3[nH]c2=O)C(=O)N2CCCC2)cc1OC` here?
A: inconclusive [inhibitor, single point]

Q: `CCOc1ccc(OCCCCN2CCCC2)cc1` was tested. Which Potency did it give?
A: inconclusive [inhibitor, single point]

Q: With `COC(=O)CSc1nc2ccc(N)cc2s1` as the compound, how does the Potency read?
A: inconclusive [inhibitor, single point]

Q: `O=[N+]([O-])CC(=Nc1ccc(Cl)cc1)N/N=C\c1oc(O)c2ccccc12` was tested. Which Potency did it give?
A: inconclusive [inhibitor, single point]

Q: How did the Potency turn out when `O=C(NCCCN1CCCC1=O)C1CCN(S(=O)(=O)N2CCOCC2)CC1` was run?
A: inconclusive [inhibitor, single point]

Q: With `COc1ccccc1/C=C(/CC(=O)NCc1ccc2c(c1)OCO2)c1nc2ccccc2s1` as the compound, how does the Potency read?
A: active: 1.41 µM

Q: With `O=C(CCNC(=O)c1ccc([N+](=O)[O-])cc1)Nc1ccccc1N1CCOCC1` as the compound, how does the “activity, negative = inhibition” value read?
A: inactive: 0.402%

Q: With `CCCN1CC23C=CC(O2)C(C(=O)O)C3C1=O` (configuration not stated) as the compound, how does the “activity, negative = inhibition” value read?
A: inactive: 8.37%

Q: Which Potency does the source give for `COc1ccc(-c2ccc(-c3cc(=O)oc4cc(OC)c(OC)c(OC)c34)cc2)cc1OC` here?
A: inconclusive [inhibitor, single point]

Q: How did the Potency turn out when `NC(=O)C1CCN(C(=O)c2ccc3c(=O)n(Cc4ccco4)c(SCC(=O)c4ccccc4)nc3c2)CC1` was run?
A: active: 14.1 µM

Q: Which “activity, negative = inhibition” value does the source give for `Cc1cc(C)c(N2C(=NC(=O)CCCC(=O)O)SC3CS(=O)(=O)CC32)c(C)c1` (configuration not stated) here?
A: inactive: 4.79%

Q: Which “activity, negative = inhibition” value does the source give for `NC(=O)COC(=O)c1ccccc1Oc1ccccc1` here?
A: inactive: 5.83%

Q: For `O=[N+]([O-])c1ccc(CSc2ncnc3c2ncn3[C@@H]2O[C@H](CO)[C@H](O)[C@H]2O)cc1`, which “activity, negative = inhibition” value is on record?
A: inactive: -4.96%

Q: Which “activity, negative = inhibition” value does the source give for `Brc1ccc(-c2nc(-c3ccncc3)no2)o1` here?
A: inactive: 11.2%

Q: With `Oc1ccccc1C1CC(c2cccs2)=NC(c2cccc(Br)c2)N1` (configuration not stated) as the compound, how does the Potency read?
A: inconclusive [inhibitor, single point]

Q: For `COc1ccc(-n2c(=O)c(-c3cccs3)nc3cnc(Oc4ccccc4)nc32)cc1`, which “activity, negative = inhibition” value is on record?
A: inactive: 70.4%

Q: With `CCc1ccccc1NC1=NCC(=O)N1C1CCCC1` as the compound, how does the “activity, negative = inhibition” value read?
A: inactive: -6.21%

Q: Which Potency does the source give for `COc1cc(/C=C2/C(=N)N3C=CSC3=NC2=O)ccc1OCCOc1ccc(NC(C)=O)cc1` here?
A: inconclusive [inhibitor, partial curve]

Q: How did the Potency turn out when `CCOC(=O)c1sc(=S)n(-c2ccccc2)c1N` was run?
A: inconclusive [inhibitor, single point]

Q: `O=C(CSc1nnnn1-c1ccccc1)Nc1ccc(Cl)cn1` was tested. Which Potency did it give?
A: active: 2.24 µM

Q: How did the Potency turn out when `COc1cccc(N2CC(O)=C(c3nc4ccccc4s3)C2=N)c1` was run?
A: inconclusive [inhibitor, single point]

Q: `CCN(CC)S(=O)(=O)c1cccc(C(=O)NCC(=O)OCC(=O)NCc2ccccc2)c1` was tested. Which Potency did it give?
A: inconclusive [inhibitor, partial curve]

Q: For `O=C(NCCc1nc2ccccc2[nH]1)c1cc([N+](=O)[O-])cc([N+](=O)[O-])c1`, which “activity, negative = inhibition” value is on record?
A: inactive: 13.4%

Q: How did the Potency turn out when `COc1ccccc1N1CCN(C(=O)c2cc3c(=O)n(C)c4ccccc4c3n2C)CC1` was run?
A: inconclusive [inhibitor, single point]

Q: For `CS(=O)(=O)N1CCc2cc(-c3csc(NC(=O)Cc4ccccc4)n3)ccc21`, which Potency is on record?
A: inconclusive [inhibitor, partial curve]

Q: Which “activity, negative = inhibition” value does the source give for `O=C(Cc1ccccc1)NC(c1ccco1)c1c(O)ccc2ccccc12` (configuration not stated) here?
A: inactive: 0.626%
